PubChem BioAssay AID588795 (National Center for Advancing Translational Sciences (NCATS), 2011)
Hit rate of the full screen: of about 390,000 compounds, about 1,400 (0.36%) were called active. The inconclusive results got no clear call from the source; some entries with a clear call stand among them for comparison. Calls follow the shape of the dose curve; as a rule, active = well fitted inhibition curve with a large enough effect; inconclusive = small, poorly fitted or top-dose-only effect; inactive = no such curve, though single readings can be large or run the other way. A potency beside an inconclusive call is a rough fit, not a confirmed value.

These compounds were tested against Flap endonuclease 1 (Homo sapiens) (UniProt P39748) (assay: qHTS Assay for the Inhibitors of Human Flap endonuclease 1 (FEN1).). Settings: Recombinant FEN1 flap cleavage, fluorescence, 15 min; series mostly up to 114 µM.
In short: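 Recombinant FEN1 (10 nM) was preincubated with pin-transferred compounds for 15 min at room temperature, then flap DNA substrate (50 nM final) was added. Plates were read at 0 and 15 min, and normalized concentration–response data were fitted to a four-parameter Hill equation.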
Also: nearly all actives have a fitted effect of over 65% in size.
Potency is read from the fitted curve at half-maximal effect; tags tell the direction and shape of the fitted curve.

Chain of UniProt P39748 (P39748 whole entry, looked up): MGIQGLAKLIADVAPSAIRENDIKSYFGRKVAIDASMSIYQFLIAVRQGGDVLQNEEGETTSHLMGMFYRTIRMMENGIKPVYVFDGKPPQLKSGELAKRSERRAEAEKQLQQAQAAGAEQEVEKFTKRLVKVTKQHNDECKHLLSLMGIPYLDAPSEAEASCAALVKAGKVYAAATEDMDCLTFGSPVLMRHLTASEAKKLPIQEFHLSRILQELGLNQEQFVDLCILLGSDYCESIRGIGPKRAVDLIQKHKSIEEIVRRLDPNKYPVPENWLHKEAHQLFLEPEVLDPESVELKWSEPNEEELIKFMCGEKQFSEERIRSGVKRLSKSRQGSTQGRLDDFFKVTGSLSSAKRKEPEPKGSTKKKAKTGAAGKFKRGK

SMILES	Potency
S=c1[nH]nc(-c2cc(-c3ccccc3)n[nH]2)n1/N=C/c1ccc(Br)s1	inconclusive: 56.2 µM [inhibitor, partial curve, poor fit]
CN(Cc1ccccc1)c1ccc(/C=C/c2sc3ccccc3[n+]2C)cc1	active: 39.8 µM
Cc1c(C(=O)Nc2ccc(F)cc2)oc2ccc(S(=O)(=O)N3CCCCCC3)cc12	inactive
CCOC(=O)C1=C(C)n2c(s/c(=C/c3cccc([N+](=O)[O-])c3)c2=O)=NC1c1ccc(O)c(OC)c1 (stereo not given)	inconclusive: 70.8 µM [inhibitor, partial curve, poor fit]
Cc1ccc(N/N=C/c2c(C)c(C#N)c(=O)n(C)c2O)cc1C	inconclusive: 89.1 µM [inhibitor, partial curve, poor fit]
N/C(=C\C(=O)c1cc(Cl)ccc1O)C(Cl)(Cl)Cl	inactive
COc1cc(/C=C2\SC(=S)N(C(Cc3ccccc3)C(=O)O)C2=O)ccc1O (stereo not given)	inconclusive: 50.1 µM [inhibitor, partial curve, poor fit]
CSc1ncc(Cl)c(C(=O)C(C#N)c2nc3c(C)cc(C)cc3c(=O)[nH]2)n1 (stereo not given)	inconclusive: 89.1 µM [inhibitor, partial curve, poor fit]
CN(C)c1ccc(NC(=O)c2cc3c(=O)n4ccccc4nc3n2C)cc1	inconclusive: 89.1 µM [inhibitor, single point]
CC1=NN(c2ccccc2)C(=O)C1/C=C1\NC(=S)NC1=O (stereo not given)	active: 79.4 µM
O=C(Nc1ccc(-c2nc3cccnc3s2)cc1)C1CCCO1 (stereo not given)	inactive
COc1cccc(N2CCN(C(=O)c3oc4ccccc4c3NC(=O)Cc3ccc(OC)c(OC)c3)CC2)c1	inconclusive: 44.7 µM [inhibitor, partial curve, poor fit]
CCOc1ccc2nc(SCC(=O)NC(=O)NCc3ccco3)sc2c1	inactive
COCCCNC(=O)c1ccc2c3c(onc13)-c1ccccc1C2=O	active: 44.7 µM
CC(C)C(=O)Nc1ccc(-c2nnc(-c3ccccc3)o2)cc1	inactive
COc1cc2sc3cc(NCC[C@@H]4CCCN4C)ccc3c(=O)c2cc1OC	active: 22.4 µM
S=c1[nH]nc(-c2cc(-c3ccccc3)n[nH]2)n1/N=C/C(Br)=C/c1ccccc1	inconclusive: 79.4 µM [inhibitor, partial curve]
CC(=O)Nc1sc2c(c1CN1CCN(C)CC1)CCCC2	inconclusive: 89.1 µM [inhibitor, partial curve, poor fit]
c1cncc(-c2nc(-c3ccco3)cs2)c1	inactive
O=C(O[C@@H]1OC2COC(=O)c3cc(O)c(O)c(O)c3-c3c(cc(O)c(O)c3O)C(=O)O[C@@H]([C@H]1O)[C@@H]2O)c1cc(O)c(O)c(O)c1	active: 0.708 µM
